Results taken from patent US20260015417A1 (MEDIMABBIO, published 2026).

Target: T1, recombinant human TIGIT protein (Acrobiosystems) (human, UniProt Q495A1 22-141)
T1 construct: Bought recombinant protein; NP_776160.2; UniProt Q495A1-1
T1 sequence: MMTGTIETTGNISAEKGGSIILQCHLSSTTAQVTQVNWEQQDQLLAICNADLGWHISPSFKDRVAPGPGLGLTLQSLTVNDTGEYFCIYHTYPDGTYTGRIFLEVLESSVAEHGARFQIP
Assay: ELISA, plate coated with recombinant human TIGIT at 1 ug/ml, serial 1:3 dilutions from 61.097 nM, detection with anti-mouse/human IgG-HRP, OD 450 nm
Method: An ELISA plate was coated with recombinant human TIGIT protein (Acrobiosystems, China) at a concentration of 1 μg/ml dissolved in PBS (Phosphate-Buffered Saline) and incubated overnight at 4° C. The plate was blocked with blocking buffer (3% (v/v) skim milk in PBS) for 1 hour, and serially diluted anti-TIGIT monoclonal antibody (7A6) and the fusion protein ([7A6]-[TL-2]-[IL-15]; denoted as ‘7A615TL-2’) (starting concentration: 61.097 nM; serial 1:3 dilutions) were added to the coated plate. After incubation, anti-mouse/human IgG-HRP antibody (Abcam: 1:10000 dilution) was added to each well. The plate was developed with TMB solution and stopped with 1N HCl. The OD value was read at 450 nm using the GloMax® Explorer Fully Loaded.

B1: 7A615TL-2 fusion protein ([7A6]-[TL-2]-[IL-15]) (other)
heavy: QVQLQESGPGLVKPSQTLSLTCTVTGYSITSDYAWNWIRQPPGKGLEWMGYISYSGSARYNPSLKSRVTISRDTSKNQFSLKLSSVTAEDTATYYCARKGYPAYFAYWGQGTLVTVSSASTKGPSVFPLAPSSKSTSGGTAALGCLVKDYFPEPVTVSWNSGALTSGVHTFPAVLQSSGLYSLSSVVTVPSSSLGTQTYICNVNHKPSNTKVDKRV[human IgG1 Fc not listed]
light: DIQMTQSPSSLSASVGDRVSITCKASQDVSTAVAWYQQKPGQAPRLLIYSASYRYTGVPDRFSGSGSGTDFTLTISSLQPEDFATYYCQHHYSTPYTFGQGTKLEIKRTVAAPSVFIFPPSDEQLKSGTASVVCLLNNFYPREAKVQWKVDNALQSGNSQESVTEQDSKDSTYSLSSTLTLSKADYEKHKVYACEVTHQGLSSPVTKSFNRGECEAAAKEAAAKEAAAK[about 120 residues not listed]
notes: Anti-TIGIT IgG1/kappa antibody 7A6 (VH3/Vk5) with wild type IL-15 fused to the C-terminus of each light chain through the rigid linker V-2 (EAAAK)3; also called TIGIT mAb-(LC-(EAAAK)3-IL-15)2
- EC50 (read off the curve): ~1 nM
